Results are given in words; binding and its absence hold for the method and conditions named. For some assays here: In cells and extracts the contact can be indirect. Some entries that bind do so weakly or less than the wild type. For some assays here: Tags and fused reporters may be left off the sequences shown. One block for each molecule: values may come before it.
Tests used:
[1] = biological target: T1, Myc-tagged full-length wild-type (WT) FOXL2 (human) (UniProt P58012); assay: co-IP; 293T cells transfected with Myc-tagged FOXL2 forms (with Flag-XRCC5 or XRCC6 fragments where indicated); IP with anti-Myc, immunoblot
T1 sequence: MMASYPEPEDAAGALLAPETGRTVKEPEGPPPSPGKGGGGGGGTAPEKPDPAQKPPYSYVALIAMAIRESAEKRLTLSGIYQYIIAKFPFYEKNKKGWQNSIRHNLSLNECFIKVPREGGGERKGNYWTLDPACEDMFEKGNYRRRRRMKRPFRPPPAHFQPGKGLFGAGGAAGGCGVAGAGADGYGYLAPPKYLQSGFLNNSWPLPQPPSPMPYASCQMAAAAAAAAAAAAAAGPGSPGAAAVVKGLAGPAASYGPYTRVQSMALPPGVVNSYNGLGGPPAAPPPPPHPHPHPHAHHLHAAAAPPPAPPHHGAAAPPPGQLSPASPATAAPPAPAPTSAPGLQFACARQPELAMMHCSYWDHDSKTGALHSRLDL

[2] = biological target: FH domain of FOXL2 (aa 46–158) (human) (UniProt P58012); assay: SEC-MALS; Superdex 200 10/300 GL in buffer A (20 mM Tris-HCl pH 8.0, 200 mM NaCl), 0.4 ml/min; each protein alone; both purified

- binding [1]: no binding
Molecule: XRCC5-C (amino acids 551–732), Flag-tagged (from UniProt P13010 551-732) (domain or fragment)

- binding [1]: binds
Molecule: XRCC5-Ku (amino acids 241–550), Flag-tagged (from UniProt P13010 241-550) (domain or fragment)

- binding [1]: no binding
Molecule: XRCC5-N (amino acids 1–240), Flag-tagged (from UniProt P13010 1-240) (domain or fragment)

- binding [1]: binds
Molecule: XRCC6-Ku (amino acids 351–500) (from UniProt P12956 351-500) (domain or fragment)

- binding [2]: no binding
B1: FH domain of FOXL2 (aa 46–158) (domain or fragment, UniProt P58012 46-158)
chain: PEKPDPAQKPPYSYVALIAMAIRESAEKRLTLSGIYQYIIAKFPFYEKNKKGWQNSIRHNLSLNECFIKVPREGGGERKGNYWTLDPACEDMFEKGNYRRRRRMKRPFRPPPA

Reference: paper PMC7181608
